Measurements as given in the supplement of paper PMC3334620.
In all, about 33,000 sequences were measured (“E-score (-0.5 to 0.5)”: median about -0.043, highest 2% from about 0.37 on). The list shows a part of the results.

These sequences were tested against T1, Upc2 (UniProt Q12151) (assay: PBM E-score (8-mer binding enrichment) (E-score (-0.5 to 0.5)); higher = stronger / more preferred TF binding; most listed sequences are background and not binding sites). Details: protein concentration: 200 nM; construct: GST-full length.
T1 sequence: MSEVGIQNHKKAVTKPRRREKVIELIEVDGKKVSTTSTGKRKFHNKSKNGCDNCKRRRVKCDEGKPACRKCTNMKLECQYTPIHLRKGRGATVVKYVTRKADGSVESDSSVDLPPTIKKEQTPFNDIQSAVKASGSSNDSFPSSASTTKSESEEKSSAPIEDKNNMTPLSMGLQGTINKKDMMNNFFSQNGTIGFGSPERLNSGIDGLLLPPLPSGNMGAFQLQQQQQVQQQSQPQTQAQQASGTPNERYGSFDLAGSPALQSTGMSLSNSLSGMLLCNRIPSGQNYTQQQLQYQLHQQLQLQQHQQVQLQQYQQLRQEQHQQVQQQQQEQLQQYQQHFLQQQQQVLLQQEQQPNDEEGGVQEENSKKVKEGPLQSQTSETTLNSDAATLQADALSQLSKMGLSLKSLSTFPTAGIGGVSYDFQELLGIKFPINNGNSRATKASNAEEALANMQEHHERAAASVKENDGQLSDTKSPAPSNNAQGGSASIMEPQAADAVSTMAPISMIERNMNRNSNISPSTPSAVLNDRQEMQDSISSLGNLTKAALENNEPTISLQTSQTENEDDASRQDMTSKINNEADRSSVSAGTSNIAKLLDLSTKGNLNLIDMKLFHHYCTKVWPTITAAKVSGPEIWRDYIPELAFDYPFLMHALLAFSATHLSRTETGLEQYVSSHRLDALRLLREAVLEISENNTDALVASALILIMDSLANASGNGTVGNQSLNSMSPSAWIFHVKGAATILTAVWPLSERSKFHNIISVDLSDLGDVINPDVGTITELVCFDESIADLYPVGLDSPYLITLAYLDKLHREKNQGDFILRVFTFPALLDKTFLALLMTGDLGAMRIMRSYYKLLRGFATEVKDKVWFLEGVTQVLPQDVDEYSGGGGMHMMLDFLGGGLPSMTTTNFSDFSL
Outline: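 PURExpress in vitro transcription/translation supplied GST-tagged yeast transcription factors, either full-length or DNA-binding domain. Applied at about 100-200 nM to universal all-10-mer Agilent arrays double-stranded by primer extension, the bound protein was detected with fluorescent anti-GST. E-scores, modified Wilcoxon-Mann-Whitney statistics, were given by the Universal PBM Analysis Suite to ungapped eight-base words pooled with their reverse complements after masliner normalisation.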

Sequence | PBM E-score
CGAAGAAC | 0.144
AATTAGTA | -0.0765
AGTCTCTA | -0.0101
GTGCGAGA | 0.107
CGGTCGAG | 0.111
CTCTCTCC | -0.132
TGATGAAA | -0.0735
GCAGGAAA | -0.125
ACACCTCG | 0.131
GAGGACGA | 0.0212
ATTGCACG | 0.132
CTCCCTGC | -0.256
GCTTTATA | -0.0158
GCAATAAC | -0.123
GACCGACA | 0.1
ATAGTATA | 0.212
AATAGGAC | -0.127
AATCGTAC | 0.43
CAGTCAGC | -0.0894
CTTCAAAA | -0.24
AAAATGGA | -0.017
ACTCAATA | -0.0312
GAATCGAA | -0.0172
CATGTACG | 0.409

Sequence | PBM E-score
ACGTGACA | 0.249
ACTGGACA | -0.0544
ACTACTCT | -0.042
GACCGAGC | 0.178
ACACCGAA | 0.0562
AGCGTCTA | -0.243
GTCCGTCA | -0.255
AGAAACCT | -0.174
CAGCGTTC | 0.00239
AATGTATA | 0.185
GCATGGAA | -0.142
AGGGGTCG | -0.0675
CTGCTGAA | -0.087
CTGTCGTC | 0.00126
GACCAGCC | -0.286
AGCAGCAC | -0.113
TACAACTA | -0.102
ATGAAACA | 0.102
AGAGTAAG | -0.226
CCGTGCAA | -0.0413
GGATGACC | -0.188
AACACTAT | 0.139
AGTGTCAC | -0.217
CTAGATTC | -0.153

Sequence | PBM E-score
CTAACTCA | -0.305
ATCGAACA | 0.138
CGGATGGC | -0.165
ACATTTTA | 0.187
GCGTTCGA | -0.0001
GCGCGGAC | -0.148
GTAATTTA | 0.215
CCCTGGTC | -0.227
CCCAATGC | -0.289
ACCTGAAT | -0.00113
ACCAAAGG | -0.204
CGTTTTAA | 0.327
AGACGGAA | -0.137
ACGAATTA | 0.346
TCCCTAAA | 0.0118
GAGTATAA | 0.198
AAAGTGAA | -0.0248
ATTCGGGC | -0.0661
CTACTCAC | -0.248
ACTCCACA | -0.11
AACGGTTG | 0.124
CAATCTCC | -0.331
AACCCGAC | 0.168
AAGTGACT | -0.156

Sequence | PBM E-score
CCTGGTGA | -0.186
ACAGCAGT | 0.0544
AAACTCAA | 0.0999
CGAAGCGA | 0.252
ATGTTTCC | -0.0146
CGTGGGTC | -0.244
AGAGGGAC | -0.106
GCCAGAGC | -0.287
GGCGCAAA | -0.035
AGCCCAAA | -0.0284
CCCGCCAA | 0.00973
CGGGCGGC | -0.18
AAAAGACG | 0.0464
ACAAGTTA | 0.0036
ACGTCTGC | -0.175
GAGTCGGA | -0.0556
GGTGCAAC | -0.0668
AGGACGCG | -0.154
CACGACCG | 0.00924
AGCTCGCG | 0.193
ACGCCGAG | 0.148
CGGTTCGA | 0.181
